Experimental data taken from PMC4335499.
Results are given in words; binding and its absence hold for the method and conditions named. Some binding calls cover weakened binding; strength is not graded here.

How the values were obtained:
Experiment in all cases: two-hybrid; Pab1/PABP1 constructs fused to the Gal4 DNA-binding domain (pOBD2), eIF4G fragments fused to the Gal4 activation domain (pOAD); yeast strain PJ694a; HIS3 reporter; cells spotted in a dilution series on synthetic complete plates lacking leucine and tryptophan, with or without histidine, 30°C, three days
[1] = biological target: Pab1 RRM2 (amino acids 123-204), wild type (S. cerevisiae) (UniProt P04147)
[2] = biological target: Pab1 RRM2 (amino acids 123-204) S155V (S. cerevisiae) (UniProt P04147)
[3] = biological target: Pab1 RRM2 (amino acids 123-204) Y197V (S. cerevisiae) (UniProt P04147)
[4] = biological target: Pab1 RRM2 (amino acids 123-204) D184W (S. cerevisiae) (UniProt P04147)
[5] = biological target: Pab1 RRM2 (amino acids 123-204) [K180E, E181R] (S. cerevisiae) (UniProt P04147)
[6] = biological target: Pab1 RRM2 (amino acids 123-204) K180E (S. cerevisiae) (UniProt P04147)
[7] = biological target: Pab1 RRM2 (amino acids 123-204) T145L (S. cerevisiae) (UniProt P04147)
[8] = biological target: Pab1 RRM2 (amino acids 123-204) K156N (S. cerevisiae) (UniProt P04147)

B1: yeast eIF4G2 N-terminus (amino acids 1-341) (domain or fragment, UniProt P39936 1-341)
chain: MTDQRGPPPPHPQQANGYKKFPPHDNQYSGANNSQPNNHYNENLYSAREPHNNKQYQSKNGKYGTNKYNNRNNSQGNAQYYNNRFNNGYRLNNNDYNPAMLPGMQWPANYYAPQMYYIPQQMVPVASPPYTHQPLNTNPEPPSTPKTTKIEITTKTGERLNLKKFHEEKKASKGEEKNDGVEQKSKSGTPFEKEATPVLPANEAVKDTLTETSNEKSTSEAENTKRLFLEQVRLRKAAMERKKNGLISETEKKQETSNHDNTDTTKPNSVIESEPIKEAPKPTGEANEVVIDGKSGASVKTPQHVTGSVTKSVTFNEPENESSSQDVDELVKDDDTTEISD
Q: Which results are given for B1?
A: binding [1]: binds; binding [2]: binds; binding [3]: binds; binding [4]: binds; binding [5]: binds weakly; binding [6]: binds; binding [7]: binds; binding [8]: binds
